Results: paper PMC12454647

Target: T1, AdhE from Escherichia coli K12 (Escherichia coli K12), P0A9Q7
T1 chain: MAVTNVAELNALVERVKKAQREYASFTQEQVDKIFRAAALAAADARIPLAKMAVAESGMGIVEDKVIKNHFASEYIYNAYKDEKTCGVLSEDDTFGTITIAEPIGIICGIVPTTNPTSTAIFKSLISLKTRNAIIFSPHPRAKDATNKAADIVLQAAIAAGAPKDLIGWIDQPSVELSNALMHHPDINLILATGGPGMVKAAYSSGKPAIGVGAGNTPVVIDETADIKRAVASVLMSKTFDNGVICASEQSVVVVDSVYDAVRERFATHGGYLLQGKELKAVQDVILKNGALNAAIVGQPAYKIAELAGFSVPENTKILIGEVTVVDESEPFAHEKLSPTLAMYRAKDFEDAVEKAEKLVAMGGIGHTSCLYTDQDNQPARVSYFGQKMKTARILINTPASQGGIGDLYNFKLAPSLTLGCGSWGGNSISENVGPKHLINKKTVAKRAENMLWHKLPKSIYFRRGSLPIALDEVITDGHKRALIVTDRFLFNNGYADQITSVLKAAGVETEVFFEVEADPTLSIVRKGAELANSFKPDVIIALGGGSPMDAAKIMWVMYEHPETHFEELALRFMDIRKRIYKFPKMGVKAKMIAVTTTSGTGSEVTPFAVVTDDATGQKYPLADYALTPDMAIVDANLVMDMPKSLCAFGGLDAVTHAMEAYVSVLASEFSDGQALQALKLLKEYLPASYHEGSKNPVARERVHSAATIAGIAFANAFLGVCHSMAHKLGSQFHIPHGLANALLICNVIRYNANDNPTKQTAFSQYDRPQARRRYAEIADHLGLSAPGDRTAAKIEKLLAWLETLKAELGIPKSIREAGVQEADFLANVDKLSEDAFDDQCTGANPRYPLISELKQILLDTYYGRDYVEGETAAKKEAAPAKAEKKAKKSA
Test: native gel or EMSA; blue native PAGE, 3-14% polyacrylamide gradient, 150 V for ~75 minutes; purified AdhE 5 or 10 ug, BdhE 1 or 2 ug
Settings: remark: other sources report otherwise

B1: AdhE from Escherichia coli K12, P0A9Q7 1-891 (enzyme)
chain: T1 chain
  stoichiometry N: 2
